Data as given in PubChem BioAssay AID485294 (National Center for Advancing Translational Sciences (NCATS), 2010).
About 150 (0.041%) of roughly 370,000 compounds were called active. Inconclusive means that the source gave no clear call. Such entries were picked first, then a sample of the others. The call rests on the fitted dose curve; in most records, active means well fitted inhibition curve with a large enough effect; inconclusive means small, poorly fitted or top-dose-only effect; inactive means flat fitted curve, though single readings scatter. Potencies of inconclusive entries are left out as doubtful fits.

These compounds were tested against Beta-lactamase (Escherichia coli (strain K12)) (UniProt P00811) (assay: qHTS Inhibitors of AmpC Beta-Lactamase (assay with detergent)). Settings: AmpC hydrolysis of nitrocefin, absorbance 480 nm, 0.01% Triton; series mostly up to 114 µM.
Procedure, shortened: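 AmpC (5.3 nM in the dispensed reagent) in 20 mM phosphate pH 7.0 with 0.01% (detergent screen) or 0.0001% Triton X-100 was preincubated with compounds for 15 min at room temperature. Nitrocefin was then added from an 800 uM solution, and hydrolysis was followed at 480 nm.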
Further: nearly all actives have a fitted effect of over 25% in size.
Potency means the concentration at half of the fitted maximal effect; tags describe the fitted curve by direction and shape.

Sequence of UniProt P00811 (P00811 whole entry, looked up): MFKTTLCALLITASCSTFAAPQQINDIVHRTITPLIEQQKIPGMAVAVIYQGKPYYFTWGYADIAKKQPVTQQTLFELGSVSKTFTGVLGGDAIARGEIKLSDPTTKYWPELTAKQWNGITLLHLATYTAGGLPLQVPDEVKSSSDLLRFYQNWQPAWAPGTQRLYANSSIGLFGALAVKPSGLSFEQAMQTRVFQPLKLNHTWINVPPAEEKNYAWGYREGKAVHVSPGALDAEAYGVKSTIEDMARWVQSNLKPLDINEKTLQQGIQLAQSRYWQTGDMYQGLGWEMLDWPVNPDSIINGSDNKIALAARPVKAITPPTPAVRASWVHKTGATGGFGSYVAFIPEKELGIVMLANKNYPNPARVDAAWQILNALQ

SMILES	Potency
COc1ccc(C(C#N)Nc2ccccc2)cc1 (stereo not given)	inconclusive [inhibitor, full curve, poor fit]
COc1ccc2c(c1)CCc1c(C(=O)N3CCCC3)noc1-2	inconclusive [inhibitor, single point]
CC1(C)c2ccccc2-c2nc3ccccc3cc2C1O (stereo not given)	inactive
COCCn1c(SCC(=O)N2CCCc3ccccc32)nnc1-c1ccoc1C	inconclusive [inhibitor, single point]
Cc1ccc(-c2nc(N)n(S(C)(=O)=O)n2)cc1	inactive
CCc1nnc(NC(=O)c2ccc(S(=O)(=O)N3CCc4ccccc4C3)cc2)s1	inactive
CCOc1ccc2[nH]c3ncccc3c(=O)c2c1	inactive
Cc1nc2ccc(NC(=O)c3cc([N+](=O)[O-])cc([N+](=O)[O-])c3Cl)cc2s1	inactive
O=C(CCCNC(=O)c1ccc(Cl)cc1)NCc1ccccc1F	inconclusive [inhibitor, full curve, poor fit]
Cc1cc(NCC2CCCCC2)nc2ccccc12	inactive
NS(=O)(=O)c1ccc(NC(=O)c2cc(-c3cccs3)nc3ccccc23)cc1	inconclusive [inhibitor, partial curve, poor fit]
CN(C)S(=O)(=O)c1cccc(NC(=O)c2cccc(S(=O)(=O)N3CCc4ccccc43)c2)c1	inactive
CCc1ccc(NC(=O)CC2C(=O)N(c3cccc(C)c3)C(=O)N2Cc2cccc(OC)c2)cc1 (stereo not given)	inactive
Cc1ccnc(NC(=O)CNC(=O)Cc2cccc3ccccc23)c1	inconclusive [inhibitor, full curve]
CC12CCC(=O)N1C(C(=O)Nc1ccc(SC(F)F)cc1)CS2 (stereo not given)	inconclusive [inhibitor, full curve, poor fit]
Cc1ccc(S(=O)(=O)N2CCCCC2CCNC(=O)C(=O)NCc2ccccc2)cc1 (stereo not given)	inconclusive [inhibitor, full curve, poor fit]
COc1ccc(NC(=O)CCN2C(=O)C3CC=CCC3C2=O)cc1S(=O)(=O)N1CCCCC1 (stereo not given)	inconclusive [inhibitor, single point]
COc1ccc(Nc2nc(N3CCCC3)c3ccccc3n2)cc1	inactive
O=C(Cc1cccs1)N1CCC2(CC1)OCCO2	inconclusive [inhibitor, full curve, poor fit]
CCOC(=O)c1c(C)[nH]c(C)c1S(=O)(=O)Nc1ccc(CN2CCCCC2)cc1	inactive
O=C(CN1C(=O)NC(Cc2ccccc2)C1=O)Nc1ccc(OC(F)(F)F)cc1 (stereo not given)	inconclusive [inhibitor, full curve, poor fit]
C=CCNc1ncnc2c1[nH]c1ccccc12	inactive
COC(=O)Nc1c(-c2ccccc2)nc2ccc(C)cn12	inconclusive [inhibitor, full curve, poor fit]

SMILES	Potency
O=C(Nc1cc(C(F)(F)F)ccc1-n1cncn1)c1ccc(Cl)cc1	inconclusive [inhibitor, single point]
O=C(Nc1ccc2c(c1)OCCO2)C1CCCN(c2ncccn2)C1 (stereo not given)	inconclusive [inhibitor, full curve, poor fit]
CC1(c2ccc3ccccc3c2)NC(=O)N(CC(=O)N2CCN(Cc3ccccc3)CC2)C1=O (stereo not given)	inactive
CCS(=O)(=O)c1ccc2oc(SCC(=O)NCCC3=CCCCC3)nc2c1	inconclusive [inhibitor, single point]
Cc1cc(C)c(S(=O)(=O)N2CCN(C(=O)c3cc4ccccc4oc3=O)CC2)c(C)c1	inactive
COc1ccc(N2CCN(C(=O)C(C)(C)Oc3ccc(Cl)cc3)CC2)cc1	inconclusive [inhibitor, full curve, poor fit]
Cc1[nH]c(=O)[nH]c(=O)c1S(=O)(=O)Nc1cccc(Cl)c1C	inactive
CCOc1ccc(NC(=O)CSc2ccc3nnc(-c4ccccn4)n3n2)cc1	inactive
Nc1cc(OC(=O)c2ccc(F)cc2)nn1S(=O)(=O)c1ccc(F)cc1	inconclusive [inhibitor, full curve, poor fit]
O=C(O)c1cccc(NS(=O)(=O)c2cccc3nsnc23)c1	inconclusive [inhibitor, single point]
CC1=CC(c2ccccc2)n2nc(NC(=O)CCCC(=O)O)nc2N1 (stereo not given)	inactive
O=C(CSc1ccc(-c2ccco2)nn1)c1ccc(F)cc1	inconclusive [inhibitor, partial curve, poor fit]
CC(C)(Cc1ccc(O)cc1)NC(=O)CC(=O)N/N=C/c1ccc(Cl)cc1	inconclusive [inhibitor, full curve, poor fit]
Cc1ccc(C(=O)Nc2ccc(N3CCOCC3)c3nonc23)cc1[N+](=O)[O-]	inconclusive [inhibitor, full curve, poor fit]
COC(=O)c1sc(N)c(C(=O)OC)c1Cn1ncc(Cl)c(Cl)c1=O	inactive
Cc1c(Cc2ccccc2)c(=O)oc2cc(OC(=O)c3ccccc3)ccc12	inconclusive [inhibitor, full curve]
c1ccc(-c2nnc(-c3ccccc3)o2)cc1	inconclusive [inhibitor, full curve, poor fit]
CCOC(=O)CNC(=O)CSc1nnnn1-c1ccc(C)c(C)c1	inconclusive [inhibitor, full curve]
COc1ccc(C(=O)CCC(=O)N2CCN(c3cccc(Cl)c3)CC2)cc1	inconclusive [inhibitor, partial curve, poor fit]
CC(C)c1ccc(C2NC(=S)NC3=C2C(=O)CCC3)cc1 (stereo not given)	inconclusive [inhibitor, partial curve, poor fit]
C#Cc1ccc([C@@H]2C=C(C(=O)N3CCOCC3)O[C@H](OCCCCO)C2)cc1	inactive
Nc1ccc(C(=O)OCc2ccncc2)cc1[N+](=O)[O-]	inconclusive [inhibitor, full curve]
